Results from publication PMC12136788.
The list shows a part of the results.

B1: chrX:40073105:40073212:-|CDS|ENSG00000183337|unk|total|mutant (ssRNA)
RNA: GGGAGUUCUACAGUCCGACGAUCCUACCAAGAUGCCCUGGGGUUGGGCAUGGUGCAUCCCAUGUUGAUACCACACACGCCCACCGAGAUUACUAAAGAGGAGAAACCAGAGAGGAGAUCCCGGUCCCAUGAGAGAGCCCGUUACAACAGAGGAUUGAGCAUCA
B2: chr19:4409044:4409156:+|CDS|ENSG00000167670|unk|total|mutant (ssRNA)
RNA: GGGAGUUCUACAGUCCGACGAUCCUGUCAUGUGGGUUCUGACACCGACUUCCGACCGAAACUUGUCAACGGGAAGGGUCCCUCCGAUAACUUUUUAAGAAACCGAAUCGAAACCAGUAUUGGCCAGAGCACAGUCAUCAUUGACAACAGAGGAUUGAGCAUCA
B3: chr3:120395571:120395798:-|3pUTR|ENSG00000163430|msi1|FALSE|unique (ssRNA)
RNA: GGGAGUUCUACAGUCCGACGAUCUGGUUCUGAUCAUUGGUCCAGAGGGGAGAUAGGUUCCUGUGAUUUUUCCUUCUUCUCUAUAGAAUAAAUGAAAUCUUGUUACUAGAACAAGAAAUGUCAGAUGGCCAAAAACAAGAUGACCAACAGAGGAUUGAGCAUCA
B4: chr12:54395726:54395827:-|3pUTR|ENSG00000161638|msi1_unk|FALSE|overlapping (ssRNA)
RNA: GGGAGUUCUACAGUCCGACGAUCAAGAACACUAACUAUGCAUGGUGCCCCAGGACCAGCUCAGGACAGAUGCCACACAAGGAUAGAUGCUGGCCCAGGGCCCAGAGCCCAGCUCCAAGGGGAAUCAGAACUCAAAUGGGGCCACAACAGAGGAUUGAGCAUCA
B5: chr11:49981574:49982501:-|CDS|ENSG00000221954|control|control|control (ssRNA)
RNA: GGGAGUUCUACAGUCCGACGAUCGAACAAUAGCUUGGAGGGGAGGUGUAAAGCCCUCUCCACCUGUAUUUCUCACAUCAUAGUAGUUGUCUUAUUCUUUGUGCCCUGUAUAUUUGUGUAUCUGCGCUCAGUGACCACUCUGCCCAACAGAGGAUUGAGCAUCA
B6: chr13:32776882:32776983:+|3pUTR|ENSG00000083642|unk|FALSE|unique (ssRNA)
RNA: GGGAGUUCUACAGUCCGACGAUCAAAGUGUUUUGAAUUGUGUCUUAAUCUCUCCAUAUUCAACUAUUCUUCAUUUACAACAAUAGUGACACCAGUAAUUAUGAGAGGCUGUCAUAUAUCAAAGCAGCUCAGGUGGGAUCAACACAACAGAGGAUUGAGCAUCA
B7: chr1:162599429:162599460:+|3pUTR|ENSG00000117143|msi1_unk|FALSE|overlapping (ssRNA)
RNA: GGGAGUUCUACAGUCCGACGAUCGGUAUUUGAACCAGAUACCAAGUUUUGUUUGCCACGAUAGGAAUAGCUUUUAUUUUUGAUAGACCAACUGUGAACCUACAAGACGUCUUGGACAACUGAAGUUUAAAUAUCCACAGGGUUCAACAGAGGAUUGAGCAUCA
B8: chr9:127733218:127733560:-|CDS|ENSG00000160404|control|control|control (ssRNA)
RNA: GGGAGUUCUACAGUCCGACGAUCGAGGUUCAGCUCUACAGCCUUAGCCUGUGCUCCCAGCAGAAUCCAGUUCCCCAUGGGCUUAGCUGGGCUUUCCCAGUGCCCUCCGCCACUCUCAGAGAUGACAUUGUCAUUCCGCCUGGUCAACAGAGGAUUGAGCAUCA
B9: chr2:216672581:216672718:-|3pUTR|ENSG00000115461|msi1|total|mutant (ssRNA)
RNA: GGGAGUUCUACAGUCCGACGAUCCACUCCACCAGUCCCCGGUCGCCAGCCGGAGUCUCCUCUCUACCGCCACUGUCACACCGCCGCCCACAUGGACCGCACAGUUGUCAGACAAGAUUCCUUCAGAUUCCGAGUUGCCUACCGCAACAGAGGAUUGAGCAUCA
B10: chr20:54218986:54219149:+|CDS|ENSG00000101132|unk|FALSE|unique (ssRNA)
RNA: GGGAGUUCUACAGUCCGACGAUCAAAUUUGCAAGAAGAAAUUGACGCCUUAGAAUCCAGAGUGGAAUCAAUUCAGCGAGUGUUAGCAGAUUUGAAAGUUCAGUUGUAUGCAAAAUUCGGGAGCAACAUAAACCUUGAAGCUGACAACAGAGGAUUGAGCAUCA
B11: chr13:19993219:19993350:+|CDS|ENSG00000121741|unk|total|mutant (ssRNA)
RNA: GGGAGUUCUACAGUCCGACGAUCUGAUGAUGAUGUUGUUUUUAUCGAACCUGUACAACCUCCCCCACCUUCUGUACCAGUGGCCGCUGAUCAAAGAACCAUAACAUUUACAUCAUCAAAAAAUGAAGAACUACAAGGAAAUGACAACAGAGGAUUGAGCAUCA
B12: chr6:43012266:43012370:-|3pUTR|ENSG00000124733|unk|FALSE|bound_elsewhere (ssRNA)
RNA: GGGAGUUCUACAGUCCGACGAUCGAGACCCACUUUAUUCAGUUCUGUACAUAUGGGGACAUCGGUCCAAGCCCAACCCACCUUAGCAUGUAUCACUCUGUGGAGAAUAAAGCACCCUAUGUACACAGCCAAAAGCCGCACUGCCAACAGAGGAUUGAGCAUCA
B13: chr1:17068045:17068226:-|3pUTR|ENSG00000117115|msi1|FALSE|unique (ssRNA)
RNA: GGGAGUUCUACAGUCCGACGAUCCUCCUUCCACUGCCUUGACUUUCUUCCUUUUUAUUCCUGGUGCCAUCUGUCCAGGCAGCUAGACAAGAACUUGUUCGCCAGCAGCCAGAUUCAGGCCUUCCCAGGGGCAUAAUAAGUGACCAACAGAGGAUUGAGCAUCA
B14: chr17:65014400:65014519:-|CDS|ENSG00000120063|unk|FALSE|unique (ssRNA)
RNA: GGGAGUUCUACAGUCCGACGAUCAAACAAGACAGACUUGCUUGAGGAGAAGGUGCAAAUUGUGAGCAUCAAAGACUAUUUCCUAGAAUUUGAAGGGGAUCCCCACUGCUUAAGAGACGUCCAAAAAUUCCUGGUGGAAUGUUUCAACAGAGGAUUGAGCAUCA
B15: ENSG00000107863:be:win_5601|CDS|ENSG00000107863|bound_else_gene|NA|bound_elsewhere_windowed (ssRNA)
RNA: GGGAGUUCUACAGUCCGACGAUCAGGAGAAAUCGGAGAUCCCCAGACAGAGAACCCAAGCACACGAGAAAUAGCCACGACCGACACACCUUUGUCUCUUCAUUGCAACACAGGCAGUUCUUCCAGCACCUUGGCUUCAACAAACAACAGAGGAUUGAGCAUCA
B16: chr2:159349074:159349175:-|CDS|ENSG00000123636|unk|FALSE|unique (ssRNA)
RNA: GGGAGUUCUACAGUCCGACGAUCUGGUGUGGUUACUUCUAAUAUUCCAUUUACAUCAUCUGUACCUAGUCUAGGAUCGGGGUUAGGGUUAUCAGAAGGAAAUGGUAAUUCAUUCUUGACUUCCAAUGUUGCUUCAAGUAAAAGCAACAGAGGAUUGAGCAUCA
B17: ENSG00000198589:be:win_2201|CDS|ENSG00000198589|bound_else_gene|NA|bound_elsewhere_windowed (ssRNA)
RNA: GGGAGUUCUACAGUCCGACGAUCGAAUCAGGGUACAAGCUCUUAAGGCAAUGGGUUAUUUUUUAAAACAUCUGGCCCCAAAGAGGAAAGCAGAAGUCAUGCUUGGACAUGGAUUGUUUUCAUUGCUAGCUGAAAGGCUCAUGCCAACAGAGGAUUGAGCAUCA
B18: chr5:56881662:56881777:+|CDS|ENSG00000095015|unk|FALSE|unique (ssRNA)
RNA: GGGAGUUCUACAGUCCGACGAUCGAUCUACUUGAGUUCUGCAAGAAUGGUUACUACAGUACCCCAUGUGUUUUCAAAACUGUUAGAAAUGCUGAGUGUUUCCAGUUCCACUCACUUCACCAGGAUGCGUCGCCGUUUGAUGGCCAACAGAGGAUUGAGCAUCA
B19: chr2:128192346:128192447:+|3pUTR|ENSG00000136731|msi1|total|mutant (ssRNA)
RNA: GGGAGUUCUACAGUCCGACGAUCAGAAAAUGAUGUUACCACUAAAAUAUUUUCUCCAAGAAGGCAUACUGUAACAGAAAAGACCGGUAAGAUAUUUUUUUCCCAAGAAGUAAGAAUUGAUUGUGCUGAAUGUUCAAACUCUGGCAACAGAGGAUUGAGCAUCA
B20: chr15:22826343:22826444:+|3pUTR|ENSG00000170113|msi1|total|mutant (ssRNA)
RNA: GGGAGUUCUACAGUCCGACGAUCAAAGUCCAUUACUCUUUUUAUUGGCUCUUGCAGGUUUUGUGUUUUAUCAUCAGUGCUUUCCGAAAUGCAGGCCUUAACUUACUGAACUGAACUUUCUGAAAACGUAAUGCCGCAGUAUCACAACAGAGGAUUGAGCAUCA
B21: chrX:153456492:153456651:-|CDS|ENSG00000213397|control|control|control (ssRNA)
RNA: GGGAGUUCUACAGUCCGACGAUCAUGGAGCACUUCGAGGACACCAGGGAGAAGAACGAGGCCUUGCUGGGGGAGCUCUUCUCUAGCCCCCACCUGCAGAUGCUCCUGAAUCCAGAGUGCGACCCGUGGCCCCUGGACAUGCAGCAACAGAGGAUUGAGCAUCA
B22: chr17:63968022:63968355:-|CDS|ENSG00000007314|control|control|control (ssRNA)
RNA: GGGAGUUCUACAGUCCGACGAUCGAAAAAGCUGUCGGAUGUGAUGAUCCUCACUGUCUUCUGCCUGAGCGUCUUUGCGCUGGUAGGACUGCAGCUCUUCAUGGGAAACCUGAGGCAGAAGUGUGUGCGCUGGCCCCCGCCGUUCAACAGAGGAUUGAGCAUCA

What follows are binders tested against T1, UNK ZnF1-6 (called full-length) (human, UniProt Q9C0B0 30-357) (assay: nsRBNS (natural sequence RNA bind-n-seq); RBNS binding buffer (assumed for nsRBNS): 25 mM Tris pH 7.5, 150 mM KCl, 3 mM MgCl2, 0.01% Triton X-100, 500 ug/ml BSA, 20 U/ml SUPERase-In, 4 C; UNK is unkempt and MSI1 is Musashi-1; names of the RNAs are library labels; protein concentration not given here; high values mean tight binding).
T1 sequence: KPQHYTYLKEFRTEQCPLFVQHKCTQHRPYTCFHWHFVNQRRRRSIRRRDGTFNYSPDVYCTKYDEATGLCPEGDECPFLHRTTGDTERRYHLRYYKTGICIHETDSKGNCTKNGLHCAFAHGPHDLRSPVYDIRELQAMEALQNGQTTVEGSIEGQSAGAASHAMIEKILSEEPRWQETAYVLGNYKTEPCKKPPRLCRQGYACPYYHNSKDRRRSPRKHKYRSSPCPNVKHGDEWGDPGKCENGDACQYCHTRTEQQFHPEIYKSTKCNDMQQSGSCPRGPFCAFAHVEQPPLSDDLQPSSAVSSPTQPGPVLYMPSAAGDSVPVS
B1 gave a binding signal of 0.783 enrichment R.
Work on B2 yielded a binding signal of 0.611 enrichment R.
Work on B3 yielded a binding signal of 0.56 enrichment R.
Binder B4 has a binding signal of 0.861 enrichment R.
In the case of B5, the binding signal is reported as 1.79 enrichment R.
B6 showed a binding signal of 0.512 enrichment R.
Binder B7 has a binding signal of 0.666 enrichment R.
Work on B8 yielded a binding signal of 0.79 enrichment R.
For B9, the binding signal was 0.819 enrichment R.
Work on B10 yielded a binding signal of 0.343 enrichment R.
B11 was tested, and the binding signal was 0.529 enrichment R.
Binder B12 has a binding signal of 0.969 enrichment R.
B13 showed a binding signal of 0.791 enrichment R.
Binder B14 has a binding signal of 0.537 enrichment R.
B15 gave a binding signal of 0.83 enrichment R.
In the case of B16, the binding signal is reported as 0.397 enrichment R.
In the case of B17, the binding signal is reported as 0.449 enrichment R.
In the case of B18, the binding signal is reported as 0.551 enrichment R.
For B19, the binding signal was 0.522 enrichment R.
B20 gave a binding signal of 0.431 enrichment R.
B21 gave a binding signal of 0.759 enrichment R.
Work on B22 yielded a binding signal of 0.782 enrichment R.
